Source: publication PMC6919601, “Identification of Plasmodium dipeptidyl aminopeptidase allosteric inhibitors by high throughput screening” (PLoS ONE, 2019)
Several values for one entry are separate records, joined by “and”; a condition that tells them apart may be missing. Identical values can stand only once. The whole screen tested about 110,000 compounds, of which about 230 (0.21%) showed an effect of 50% or more. This is one part of the list.
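Note: 30 min substrate incubation versus DMSO and 10 µM JCP410 controls.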

What follows are compounds tested against DPAP1 (Plasmodium falciparum, UniProt Q8IIJ9) (assay: primary screen, percent inhibition; read by cleavage of a fluorogenic dipeptide substrate; higher = more effect of the substance).
Sequence of DPAP1 (Q8IIJ9 whole entry, looked up): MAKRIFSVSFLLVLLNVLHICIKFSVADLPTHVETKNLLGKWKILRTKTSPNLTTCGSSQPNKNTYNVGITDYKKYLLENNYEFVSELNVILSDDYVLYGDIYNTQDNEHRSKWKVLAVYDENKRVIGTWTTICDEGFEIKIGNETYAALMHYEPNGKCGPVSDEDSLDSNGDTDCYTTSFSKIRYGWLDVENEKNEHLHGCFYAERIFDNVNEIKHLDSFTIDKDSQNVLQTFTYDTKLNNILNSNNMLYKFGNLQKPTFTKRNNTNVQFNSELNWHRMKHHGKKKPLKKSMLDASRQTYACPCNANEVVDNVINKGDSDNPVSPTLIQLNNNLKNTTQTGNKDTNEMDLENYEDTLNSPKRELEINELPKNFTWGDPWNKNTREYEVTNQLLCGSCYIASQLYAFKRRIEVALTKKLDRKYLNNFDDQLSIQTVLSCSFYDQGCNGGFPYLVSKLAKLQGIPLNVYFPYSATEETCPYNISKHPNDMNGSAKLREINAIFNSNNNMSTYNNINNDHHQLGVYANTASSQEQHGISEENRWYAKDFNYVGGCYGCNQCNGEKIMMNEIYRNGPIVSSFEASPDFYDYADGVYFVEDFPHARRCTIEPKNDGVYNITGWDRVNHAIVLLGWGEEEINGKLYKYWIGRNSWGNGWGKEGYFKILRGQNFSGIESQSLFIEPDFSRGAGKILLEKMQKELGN
Parameters: species or system P. falciparum D10 trophozoite lysates; single well
`O=C(Nc1cccnc1Cl)c1cc(-c2ccc(O)cc2)on1` was tested, and the “% Inhibition @ 10 uM” value was -2.65%.
For `CCc1nc2ccc(C(=O)NCCCN3CCN(Cc4ccccc4)CC3)cc2nc1CC`, the “% Inhibition @ 10 uM” value was -4.18%.
With `CC(=O)c1c(C)n(-c2ccc(Br)cc2)c2ccc(O)cc12` the “% Inhibition @ 10 uM” value was 2.92%.
With `O=C(N/C(=C/c1ccccc1)c1nc2ccccc2[nH]1)c1ccccc1` the “% Inhibition @ 10 uM” value was 2.54%.
For `C=CCc1cccc2cc(C(=O)Nc3ccccc3OC)c(=O)oc12`, the “% Inhibition @ 10 uM” value was -2%.
With `NC(=O)CSc1nc2c(oc3ccccc32)c(=O)n1Cc1ccco1` the “% Inhibition @ 10 uM” value was -1.71%.
`CC(=O)c1ccc(NC(=O)C2CCCCC2)cc1` was tested, and the “% Inhibition @ 10 uM” value was -1.52%.
For `CC(C)N(CC#CC(C)(C)O)Cc1ccccc1`, the “% Inhibition @ 10 uM” value was -7.32%.
In the case of `COc1ccc(NC(=O)CN(c2ccc(F)cc2)S(C)(=O)=O)cc1`, the “% Inhibition @ 10 uM” value is reported as -5.27%.
With `Cc1c(CC(=O)O)c(=O)oc2c(C)c3occ(-c4ccc(F)cc4)c3cc12` the “% Inhibition @ 10 uM” value was -2.92%.
With `CS(=O)(=O)N(CC(=O)Nc1cc(Cl)cc(Cl)c1)c1cccc2ccccc12` the “% Inhibition @ 10 uM” value was -1.35%.
For `CCCCCC(=O)Nc1sc2c(c1C(N)=O)CCC(C)C2` (centres unmarked), the “% Inhibition @ 10 uM” value was -8.72%.
For `CC(O)Cn1c2ccc(Cl)cc2c2cc(Cl)ccc21` (centres unmarked), the “% Inhibition @ 10 uM” value was -2.54%.
`O=C(Nc1nc(-c2ccc(Cl)cc2)cs1)c1cccnc1` was tested, and the “% Inhibition @ 10 uM” value was 5.05%.
With `COc1ccc(CNCc2cc(F)ccc2F)cc1OC` the “% Inhibition @ 10 uM” value was -8.78%.
With `Cc1ccc(C)c(Cn2c(=O)n(CCCC(=O)NCc3ccco3)c(=O)c3sccc32)c1` the “% Inhibition @ 10 uM” value was 1.23%.
In the case of `CC(=O)N1CCc2c(sc3c2c(=O)n(Cc2ccccc2)c(=O)n3CC(=O)NCC2CCCO2)C1` (centres unmarked), the “% Inhibition @ 10 uM” value is reported as 0.0579%.
For `COc1cccc(N2C(=O)CC(N3CCOCC3)C2=O)c1` (centres unmarked), the “% Inhibition @ 10 uM” value was -4.43%.
`CCOC(=O)c1nnn(-c2nonc2N)c1-c1cc(OC)c(OC)c(OC)c1` was tested, and the “% Inhibition @ 10 uM” value was -1.82%.
With `CCCN(CCC)S(=O)(=O)c1ccc(NC(=O)c2cccs2)cc1` the “% Inhibition @ 10 uM” value was -0.185%.
For `COc1ccc(CSCc2ccccc2)cc1C(=O)O`, the “% Inhibition @ 10 uM” value was -1.82%.
`O=C1CC(N2CCN(c3ccccc3)CC2)C(=O)N1c1ccc2c(c1)OCCO2` (centres unmarked) was tested, and the “% Inhibition @ 10 uM” value was -6.43%.
`Cc1c2cnn(CC(=O)NC(C)C34CC5CC(CC(C5)C3)C4)c(=O)c2c(C)n1Cc1ccccc1F` (centres unmarked) was tested, and the “% Inhibition @ 10 uM” value was 2.84%.
For `COc1ccc(N2C(=O)C(Cl)=C(Nc3ccccc3F)C2=O)cc1`, the “% Inhibition @ 10 uM” value was 1.57%.
For `CCC(N)C12CC3CC(CC(O)(C3)C1)C2` (centres unmarked), the “% Inhibition @ 10 uM” value was 2.59%.
For `CCc1c(C)nc2cc(-c3cccc(Br)c3)nn2c1O`, the “% Inhibition @ 10 uM” value was -0.891%.
With `O=C(NCc1ccco1)C1CCN(S(=O)(=O)c2ccccc2)CC1` the “% Inhibition @ 10 uM” value was -1.92%.
In the case of `COc1ccc(CN2CCCC(C(=O)N3CCc4ccccc4C3)C2)cc1OC` (centres unmarked), the “% Inhibition @ 10 uM” value is reported as -1.17%.
In the case of `O=C(Cc1ccccc1)NCc1ccc(Cl)cc1`, the “% Inhibition @ 10 uM” value is reported as -6.12%.
For `COc1cc(NC(=O)c2ccc(OC(F)F)cc2)cc(OC)c1`, the “% Inhibition @ 10 uM” value was 0.431%.
For `Cc1ccc(C)c(CNc2ccc3c[nH]nc3c2)c1`, the “% Inhibition @ 10 uM” value was -5.2%.
With `Cc1cc(C)c(S(=O)(=O)NCCO)c(C)c1` the “% Inhibition @ 10 uM” value was 0.774%.
With `COC(=O)c1cc(S(=O)(=O)NCc2ccccc2OC)cn1C` the “% Inhibition @ 10 uM” value was -1.06%.
With `CC1(C)CC(O)=C/C(=N/CCN2CCN(C(=O)Cc3ccc(Cl)cc3)CC2)C1` the “% Inhibition @ 10 uM” value was -2.16% and -2.98%.
For `CCC(=O)C1=C(c2ccc(OC)c(OC)c2)N(C(=O)CC)n2c(C)nnc2S1`, the “% Inhibition @ 10 uM” value was -4.11%.
With `O=C1OC(c2cncc(Br)c2)=N/C1=C/c1ccc(Cl)c(Cl)c1` the “% Inhibition @ 10 uM” value was -3.44%.
In the case of `CC1(C)CC(=O)Nc2cc(-c3ccccc3)n(-c3ccccc3)c2C1`, the “% Inhibition @ 10 uM” value is reported as 4.01%.
In the case of `Cc1c(CNCCc2c[nH]c3ccccc23)c(C(=O)O)c(C)n1Cc1ccccc1F`, the “% Inhibition @ 10 uM” value is reported as 2.99%.
In the case of `CCOc1ccc(CCNCc2c(C(=O)O)n(Cc3ccccc3F)c3ccccc23)cc1OCC`, the “% Inhibition @ 10 uM” value is reported as -3.21%.
`Cc1[nH]c2ccc(C(=O)N3CCC(C)CC3)cc2c1C` was tested, and the “% Inhibition @ 10 uM” value was -4.54%.
For `Cc1cc(C(=O)Nc2cnn(Cc3ccccc3C)c2)no1`, the “% Inhibition @ 10 uM” value was -13%.
In the case of `CCCC(=O)Nc1nc2n(n1)C(c1ccc(OC)cc1)C=C(c1ccccc1)N2` (centres unmarked), the “% Inhibition @ 10 uM” value is reported as 1.62%.
In the case of `Cc1c(C(=O)N(C)c2cccc(Cl)c2)cnn1-c1ccccc1`, the “% Inhibition @ 10 uM” value is reported as -3.45%.
For `COc1ccc(N(CC(=O)Nc2c(C)cccc2C)S(C)(=O)=O)c(OC)c1`, the “% Inhibition @ 10 uM” value was -7.23%.
In the case of `COc1ccc(CNCc2cccn2-c2sc(C)c(C)c2C(=O)O)cc1`, the “% Inhibition @ 10 uM” value is reported as 4.83%.
With `CC(=O)Nc1nn2c(-c3ccccc3C)nnc2s1` the “% Inhibition @ 10 uM” value was -1.72%.
`O=C(NCc1ccccn1)C1CCN(c2nnc(N3CCCC3=O)s2)CC1` was tested, and the “% Inhibition @ 10 uM” value was -4.68%.
`CCOc1ccccc1C(=O)N(Cc1ccccc1)c1ccccn1` was tested, and the “% Inhibition @ 10 uM” value was 1.37%.
For `CN(CC(=O)N1CCC(Cc2ccccc2)CC1)S(=O)(=O)c1ccc2[nH]c3c(c2c1)CCCC3`, the “% Inhibition @ 10 uM” value was -3.05%.
In the case of `CCn1ccnc(N2CCCCC2)/c1=N/c1ccc(OC)cc1`, the “% Inhibition @ 10 uM” value is reported as -3.77%.
`COc1ccc2c(c1)c(=O)cc(-c1ccccc1)n2C` was tested, and the “% Inhibition @ 10 uM” value was 0.843%.
For `COc1ccc(NCN2C(=O)S/C(=C/c3ccc(F)cc3)C2=O)c(OC)c1`, the “% Inhibition @ 10 uM” value was -0.171%.
For `CC(C)CC(NC(=O)c1cccc(NC(=O)N2CCN(CC(=O)N3CCCC3)CC2)c1)C(=O)NCC#N` (centres unmarked), the “% Inhibition @ 10 uM” value was 3.66%.
With `OC(CNCc1ccccc1)C12CC3CC(CC(C3)C1)C2` (centres unmarked) the “% Inhibition @ 10 uM” value was 1.88%.
`COc1ccc(-c2csc(-c3cc4cc(OC)ccc4oc3=O)n2)cc1` was tested, and the “% Inhibition @ 10 uM” value was 1.74%.
With `CN1CCC(N[C@H]2CC[C@H](O)CC2)CC1` the “% Inhibition @ 10 uM” value was -5.11%.
In the case of `Cc1nc(-c2ccccc2)nc(/N=C/N(C)C)c1-c1cc(C)c2c(C)nc(-c3ccccc3)nc2n1`, the “% Inhibition @ 10 uM” value is reported as 1.26%.
In the case of `N#CCCn1c(=S)n(CCC#N)c2ccccc21`, the “% Inhibition @ 10 uM” value is reported as -5.28%.
For `CCCCN(C)CCNC(=O)c1cc2cc3cc(OC)ccc3nc2s1`, the “% Inhibition @ 10 uM” value was 83.9%.
In the case of `O=C(O)C1C2C=CC(C2)C1C(=O)NCc1ccccc1` (centres unmarked), the “% Inhibition @ 10 uM” value is reported as 4.8%.
For `CCOc1ccc(/C=c2\sc3nc(-c4ccc(C)cc4)nn3c2=O)cc1OC`, the “% Inhibition @ 10 uM” value was 0.222%.
In the case of `OC1CCCN(Cc2ccccc2F)C1` (centres unmarked), the “% Inhibition @ 10 uM” value is reported as -1.77%.
For `CNc1c(NC(=O)c2ccccc2OC)c(=O)oc2ccccc12`, the “% Inhibition @ 10 uM” value was 3.99%.
In the case of `COCCOc1nc2c(c(=O)n(C)c(=O)n2C)n1C(C)c1ccccc1` (centres unmarked), the “% Inhibition @ 10 uM” value is reported as 1.96%.
In the case of `COc1ccc(C2=N/C(=C\c3cccc(C(F)(F)F)c3)C(=O)O2)cc1OC`, the “% Inhibition @ 10 uM” value is reported as 6.11%.
In the case of `Cc1cc(NS(=O)(=O)c2ccc(NC(=O)COc3cc(C)c(Cl)c(C)c3)cc2)nc(C)n1`, the “% Inhibition @ 10 uM” value is reported as -10.2%.
In the case of `O=C(O)c1ccccc1C(=O)Nc1ccccc1C(=O)N1CCN(c2cccc(Cl)c2)CC1`, the “% Inhibition @ 10 uM” value is reported as -2.09%.
For `CC1=Nc2ccc(C)c3nc(C)cc(c23)N1c1ccc(C)cc1`, the “% Inhibition @ 10 uM” value was -6.49%.
In the case of `CN(C)c1ccc(NC(=O)c2cccc(N3C(=O)c4cccnc4C3=O)c2)cc1`, the “% Inhibition @ 10 uM” value is reported as -0.171%.
With `Cc1ccc(N(CC(=O)Nc2ccc3c(c2)OCO3)S(C)(=O)=O)cc1C` the “% Inhibition @ 10 uM” value was -4.53%.
With `CCn1c2ccccc2c2cc(CN3CCC(O)(c4ccc(Br)cc4)CC3)ccc21` the “% Inhibition @ 10 uM” value was -3.6%.
`O=C(NCc1ccco1)c1cnn2c1NC(c1ccccc1)CC2C(F)(F)F` (centres unmarked) was tested, and the “% Inhibition @ 10 uM” value was -3.49%.
With `CCOc1ccc(Br)cc1C1C(C#N)=C(N)Oc2[nH]nc(C)c21` (centres unmarked) the “% Inhibition @ 10 uM” value was -0.661%.
With `CCC(C(=O)NCCc1ccc(S(N)(=O)=O)cc1)c1ccccc1` (centres unmarked) the “% Inhibition @ 10 uM” value was -14.1%.
For `Cc1ccc(S(=O)(=O)N2CCN(CCOc3ccc(C(C)C)cc3)CC2)cc1`, the “% Inhibition @ 10 uM” value was 2.32%.
In the case of `O=C(O)c1ccc(-n2cccn2)cc1`, the “% Inhibition @ 10 uM” value is reported as -5.96%.
For `CC1(C)CC(=O)c2c(n[nH]c2Cc2ccccc2)C1`, the “% Inhibition @ 10 uM” value was 3.99%.
